The GPR68 mutational scans of Howard et al. (2025)
The least precise scores are not listed. The source holds two more conditions with little spread; they are left out. In variant names, del marks residues removed and ins residues inserted between the two positions. For some assays here: How much ogerin was present is not stated here.

B1: GPR68, Q15743 (parent)
chain: MGNITADNSSMSCTIDHTIHQTLAPVVYVTVLVVGFPANCLSLYFGYLQIKARNELGVYLCNLTVADLFYICSLPFWLQYVLQHDNWSHGDLSCQVCGILLYENIYISVGFLCCISVDRYLAVAHPFRFHQFRTLKAAVGVSVVIWAKELLTSIYFLMHEEVIEDENQHRVCFEHYPIQAWQRAINYYRFLVGFLFPICLLLASYQGILRAVRRSHGTQKSRKDQIQRLVLSTVVIFLACFLPYHVLLLVRSVWEASCDFAKGVFNAYHFSLLLTSFNCVADPVLYCFVSETTHRDLARLRGACLAFLTCSRTGRAREAYPLGAPEASGKSGAQGEEPELLTKLHPAFQTPNSPGSGGFPTGRLA

How the values were obtained:
[1] = variants of: B1; experiment: cAMP reporter score (Enrich2 score, wild type = 0); higher = more signal; HEK293T, FACS bins
[2] = variants of: B1; experiment: surface expression score (Enrich2 score, wild type = 0); higher = more signal; HEK293T, FACS bins

| Variant | cAMP reporter score ([1]; pH 5.5) | cAMP reporter score ([1]; pH 6) | cAMP reporter score ([1]; pH 6, modulator: ogerin) | cAMP reporter score ([1]; pH 6.5, modulator: ogerin) | surface expression score [2] |
| --- | --- | --- | --- | --- | --- |
| I71_C72insGSG | -1.33 | -0.402 | -1.05 | -1.01 | -2.01 |
| C72A | 0.679 | 2.06 | 1.3 | 1.32 | -0.409 |
| C72D | -2.1 |  | -1.96 | -1.68 | -2.16 |
| C72E | -1.08 | -1.41 | -3.09 |  |  |
| C72F | -0.503 | 0.85 | -0.207 | -0.199 | -1.08 |
| C72G | -0.568 | -0.26 | -0.569 | 0.03 | -1.57 |
| C72H | -1.13 |  |  | -0.924 |  |
| C72I | 0.999 |  | 1.65 | 0.393 | 1.81 |
| C72K | -2.03 | -0.907 | -0.599 | -0.969 | -2.48 |
| C72L | 0.141 | 0.458 | 0.269 | -0.282 | 0.658 |
| C72N | -0.486 |  |  | -0.421 |  |
| C72Q | -1.11 | 1.02 |  | -0.205 | -2.07 |
| C72R | -1.49 | -0.37 | -1.75 | -0.982 | -1.81 |
| C72S | 1.1 | 1.35 | 1.27 | 0.068 | -0.954 |
| C72T | 0.383 | 0.297 | -0.495 | 0.522 | 0.096 |
| C72W | 1.1 | -0.324 | -0.149 | -0.969 | -2.15 |
| C72Y | -0.688 | -0.476 | -0.79 | -0.631 | -0.778 |

| Variant | cAMP reporter score ([1]; pH 5.5) | cAMP reporter score ([1]; pH 6) | cAMP reporter score ([1]; pH 6, modulator: ogerin) | cAMP reporter score ([1]; pH 6.5, modulator: ogerin) | surface expression score [2] |
| --- | --- | --- | --- | --- | --- |
| C72_S73insG | -0.316 | -0.69 | -0.492 | -1.99 | 1.71 |
| C72del | -0.688 | -0.596 | -1.59 | -0.412 | -2.42 |
| S73_L74insG | -1.45 | -1.22 | -0.604 | -1.13 |  |
| S73_L74insGSG | -0.661 | -2.1 |  |  | -1.91 |
| S73del | -0.737 | -0.292 | -0.787 | -1.14 | -1.59 |
| L74_P75insG | -1.64 | -1.28 | -1.1 | -1.08 | -2.61 |
| L74_P75insGS | -1.81 | 0.059 |  | -1.5 | -2.68 |
| L74_P75insGSG | -1.35 | -1.55 | -1.31 | -0.875 | -2.9 |
| P75C | -0.431 | -0.056 |  | -0.431 |  |
| P75E | -2.59 | -1.35 | -1.95 | -1.06 | -2.66 |
| P75F | -1.13 |  | -1.2 |  | -1.69 |
| P75G | -0.066 | -0.558 | -0.708 | -0.433 | -0.926 |
| P75H | -1.56 | -0.972 | -1.57 | -1.14 | -2.15 |
| P75I | -1.27 | -1.33 | -1.72 | -1.83 | -2.52 |
| P75K | -1.64 | -0.466 |  | -0.617 | -2.46 |
| P75L | -0.776 | -0.567 | -0.819 | -0.666 | -0.797 |
| P75N | -2.09 | -1.86 |  | -0.626 | -2.15 |
